Test results taken from PubChem BioAssay AID588342 (National Center for Advancing Translational Sciences (NCATS), 2011).
Among all 360,000 compounds or so, about 25,000 (6.9%) were called active. Inconclusive results, whose numbers are uncertain, are shown with a selection of clear calls. Calls follow the shape of the dose curve; as a rule, active = well fitted inhibition curve with a large enough effect; inconclusive = small, poorly fitted or top-dose-only effect; inactive = flat fitted curve, though single readings scatter. Where the call is inconclusive, the potency comes from a doubtful curve fit.

Biological target: Luciferin 4-monooxygenase (Photinus pyralis) (UniProt P08659)
Experiment: qHTS profiling assay for firefly luciferase inhibitor/activator using purifed enzyme and Km concentrations of substrates (counterscreen for miR-21 project); also: nearly all actives have a fitted effect of over 55% in size;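 as to activity change, negative = inhibition: plate controls were vehicle for no effect and reference inhibitor for full effect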
Conditions: purified FLuc, luminescence inhibition; activity change, negative = inhibition: at 57.5 µM (top of the series)
Summary of the method: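 Biochemical qHTS of compounds, final roughly 60 µM downward over six points, against 10 nM purified firefly luciferase using Km concentrations of substrates (10 uM D-luciferin, 10 uM ATP) in Tris acetate pH 7.5 buffer; luminescence output.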
Potency is read from the fitted curve at half-maximal effect; tags tell the direction and shape of the fitted curve.

Chain of UniProt P08659 (P08659 whole entry, looked up): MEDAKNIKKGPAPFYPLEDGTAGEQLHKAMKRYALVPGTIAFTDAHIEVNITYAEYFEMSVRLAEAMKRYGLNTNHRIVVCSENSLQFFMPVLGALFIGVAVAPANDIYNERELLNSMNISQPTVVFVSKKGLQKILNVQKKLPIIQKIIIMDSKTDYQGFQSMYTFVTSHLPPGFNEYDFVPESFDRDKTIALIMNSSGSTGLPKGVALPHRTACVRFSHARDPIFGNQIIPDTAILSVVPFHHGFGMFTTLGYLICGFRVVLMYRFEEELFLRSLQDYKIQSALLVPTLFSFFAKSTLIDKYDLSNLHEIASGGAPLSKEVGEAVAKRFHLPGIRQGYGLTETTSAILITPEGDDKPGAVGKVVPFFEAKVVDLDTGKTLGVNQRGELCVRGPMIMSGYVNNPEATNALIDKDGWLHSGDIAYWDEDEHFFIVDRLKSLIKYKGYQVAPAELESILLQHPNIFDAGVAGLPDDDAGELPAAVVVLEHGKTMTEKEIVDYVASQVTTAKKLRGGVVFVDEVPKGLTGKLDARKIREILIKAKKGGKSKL

Compound | activity change, negative = inhibition | Potency
CSC1=NC(C)N2C(SC)=NC(C)N12 (centres undefined) | inactive: 6.1% | –
CC(=O)Nc1cccc(C(=O)Nc2ccccc2C(=O)O)c1 | – | active: 23.9 µM
Cc1ccc2nc(C)c(C(=O)N/N=C/c3cccc([N+](=O)[O-])c3)cc2c1 | – | inconclusive: 5.36 µM [inhibitor, single point]
O=C(Nc1ccc(Cl)cc1C(F)(F)F)c1ccccc1Cl | – | inconclusive: 23.9 µM [inhibitor, single point]
Cc1ccc(NC(=O)c2ccc(-n3cccn3)c([N+](=O)[O-])c2)cc1 | – | inconclusive: 37.9 µM [inhibitor, partial curve, poor fit]
CCCCOc1nnc(-c2ccc(OCC)cc2)c2ccccc12 | – | inconclusive: 37.9 µM [inhibitor, partial curve, poor fit]
Oc1cc(NCc2ccccc2)cc2cccnc12 | – | inconclusive: 37.9 µM [inhibitor, partial curve, poor fit]
Cc1nc(Nc2ccc3c(c2)OCCO3)c2c(C)c(C)sc2n1 | – | inconclusive: 15.1 µM [inhibitor, partial curve]
CCOC(=O)Cc1ccc(NC(=O)c2cccc([N+](=O)[O-])c2)cc1 | – | inconclusive: 23.9 µM [inhibitor, partial curve, poor fit]
COc1ccccc1NS(=O)(=O)c1cc(NC(=O)CNC(=O)c2ccc(C)s2)ccc1Cl | – | inconclusive: 30.1 µM [inhibitor, partial curve, poor fit]
O=C(NCc1ccc2c(c1)OCO2)c1cc(-c2ccc(Cl)cc2Cl)on1 | – | active: 12 µM
Cc1ccc(-n2nc(CO)c(C(=O)NCCc3ccccc3)n2)cc1 | inactive: -0.322% | –
CCOC(=O)C1CCN(S(=O)(=O)C(F)(F)c2nc3ccccc3s2)CC1 | – | active: 26.9 µM
CN(C(=O)COC(=O)c1cc2c(s1)CCCCC2)c1ccccc1 | – | inconclusive: 21.3 µM [inhibitor, single point]
COc1cc2c(cc1OC)CN(C(=O)CSc1nc(C)cc(C)c1C#N)CC2 | inactive: -6.02% | –
N#C/C(=C\c1ccc(O)c(Br)c1)C(=O)N1CCCCC1 | – | inconclusive: 23.9 µM [inhibitor, partial curve, poor fit]
CCn1c(SCC(=O)Nc2ccc3c(c2)OCCO3)nnc1C(C)C | – | inconclusive: 33.8 µM [inhibitor, single point]
O=C1C=C(NNC(=O)c2cccnc2)CC(c2ccco2)C1 (centres undefined) | inactive: 1.71% | –
O=C(NCC(=O)N1CCCC(C(F)(F)F)C1)c1ccccc1F (centres undefined) | – | inconclusive: 19 µM [inhibitor, partial curve, poor fit]
C/C(=N\NC(=O)c1cccc(N/N=C(\C)c2cc(O)ccc2O)c1)c1cc(O)ccc1O | – | active: 12 µM
NS(=O)(=O)c1ccc(CCNC(=O)/C=C/c2cccc([N+](=O)[O-])c2)cc1 | – | inconclusive: 0.0135 µM [inhibitor, partial curve, poor fit]
CC1Cc2ccccc2N1C(=S)NC(=O)C1(C)CC1(Cl)Cl (centres undefined) | – | inconclusive: 26.9 µM [inhibitor, single point]
CCCCNC(=O)C1=CC(c2ccc3c(c2)OCO3)=NS(=O)(=O)N1C | inactive: -2.04% | –

Compound | activity change, negative = inhibition | Potency
Clc1cccc(N=NN2CCOCC2)c1Cl | – | inconclusive: 37.9 µM [inhibitor, partial curve, poor fit]
O=C(Nc1nc2nccc(-c3ccccc3)n2n1)C(Cl)(Cl)Cl | – | inconclusive: 30.1 µM [inhibitor, partial curve, poor fit]
CCCc1cc(=O)n2[nH]c(NCc3ccc(CC)cc3)nc2n1 | – | inconclusive: 23.9 µM [inhibitor, partial curve]
O=C1c2[nH]nc(-c3ccccc3)c2C(c2ccccc2)N1c1cccc(C(F)(F)F)c1 (centres undefined) | inactive: 0.213% | –
COc1ccccc1C(=O)Nc1cccc2c1CCCC2 | – | inconclusive: 37.9 µM [inhibitor, partial curve, poor fit]
Cc1cc2c(C)nc(N/N=C/c3ccc(F)cc3)nc2o1 | – | inconclusive: 16.9 µM [inhibitor, partial curve]
O=C1CS(=O)(=O)C2(C(=O)N(Cc3ccc(F)cc3)c3ccccc32)N1c1cccc(C(F)(F)F)c1 (centres undefined) | inactive: 4.22% | –
CCNC(=O)CCCOc1ccc(Cl)cc1Cl | – | inconclusive: 26.9 µM [inhibitor, single point]
COc1ccc(-c2noc(N3CCC(C(=O)N4CCN(c5ccccn5)CC4)CC3)n2)cc1 | – | inconclusive: 19 µM [inhibitor, partial curve]
CC1=Nc2ccccc2/C1=C\c1sc(Nc2ccc(C)cc2)nc1O | – | inconclusive: 13.5 µM [inhibitor, partial curve, poor fit]
CC(C)c1ccc(OCc2ccc(C(=O)NN3CCN(C)CC3)o2)cc1 | – | inconclusive: 23.9 µM [inhibitor, partial curve, poor fit]
Fc1ccc(CSc2ccc(-c3cccs3)nn2)cc1 | – | inconclusive: 0.849 µM [inhibitor, partial curve, poor fit]
CC(C)(C)c1ccc(C(=O)NCC(=O)NNC(=O)c2ccccc2O)cc1 | – | inconclusive: 15.1 µM [inhibitor, partial curve]
CCOc1ccc(NC(=O)CCSc2nnc(C)s2)cc1 | – | inconclusive: 37.9 µM [inhibitor, partial curve, poor fit]
O=C(Nc1cccn(Cc2c(F)cccc2Cl)c1=O)NC1CCCCC1 | – | active: 13.5 µM
CCOC(=O)Cn1cc(C(=O)c2ccco2)c2ccccc21 | – | inconclusive: 26.9 µM [inhibitor, partial curve, poor fit]
COc1cccc(OCc2nc3ccccc3n2Cc2ccccc2C)c1 | – | inconclusive: 23.9 µM [inhibitor, partial curve, poor fit]
Cc1ccc(C#CC[N+](C)(C)CC#Cc2ccccc2)cc1 | – | inconclusive: 0.012 µM [inhibitor, partial curve, poor fit]
Nc1ccc(-c2cc3ccccc3oc2=O)cc1 | – | active: 21.3 µM
O=C(CSc1nnnn1C1CCCCC1)N1CCN(C(=O)c2ccco2)CC1 | – | inconclusive: 37.9 µM [inhibitor, single point]
CSc1nc2ccc(Br)cc2[nH]1 | inactive: -5.57% | –
O=C(CSc1nnc(NCc2ccccc2)s1)c1ccco1 | – | active: 15.1 µM
COc1cc(NC(=O)Cn2nnc(-c3ccc(C(F)(F)F)cc3)n2)c(C(=O)O)cc1OC | – | inconclusive: 8.49 µM [inhibitor, full curve]

Compound | activity change, negative = inhibition | Potency
Cc1ccc(C(=O)N/C(=C/c2ccco2)C(=O)N2CCC(C)CC2)cc1 | – | inconclusive: 21.3 µM [inhibitor, single point]
O=C(COc1ccccc1)N1CCN(C(=O)c2ccc([N+](=O)[O-])cc2)CC1 | – | active: 9.53 µM
O=C(C1CC1)N1CCc2[nH]c3ccccc3c2C1 | – | inconclusive: 30.1 µM [inhibitor, partial curve, poor fit]
CC1=C(C(=O)OCc2ccccc2)C(c2cccc(F)c2)NC(=O)N1 (centres undefined) | inactive: 2.84% | –
CCCNC(=O)c1nnsc1Sc1ccc(Cl)cc1 | – | inconclusive: 26.9 µM [inhibitor, single point]
Cc1ccc(NC(=O)CSc2nc3[nH]c(=O)cc(O)c3s2)c(Br)c1 | inactive: -1.21% | –
CCN1CCN(c2ccc(NC(=O)c3cccc(OCc4ccccc4)c3)cc2)CC1 | – | inconclusive: 7.57 µM [inhibitor, partial curve]
COc1ccccc1C(=O)Nc1ncc2c(n1)CC(c1ccco1)CC2=O (centres undefined) | – | inconclusive: 21.3 µM [inhibitor, partial curve, poor fit]
Cc1cc(C)c(NS(=O)(=O)c2ccc(-c3cnc(C4CC4)o3)cc2)c(C)c1 | inactive: -19.4% | –
CC(C)(C)OC(=O)N1CCC(Cc2cc(-c3cccc(Br)c3)no2)(C(=O)O)CC1 | – | inconclusive: 7.57 µM [inhibitor, partial curve, poor fit]
COc1cc(OC)cc(-c2nc(-c3ccc(Br)cc3)no2)c1 | – | active: 13.5 µM
CC(C)c1ccc(NC(=O)CN2C(=O)c3ccccc3S2(=O)=O)cc1 | – | inconclusive: 26.9 µM [inhibitor, partial curve, poor fit]
CCOC(=O)C1=C(C)N=c2s/c(=C\c3ccc(OC(C)=O)cc3)c(=O)n2C1/C=C/c1ccccc1 (centres undefined) | – | inconclusive: 23.9 µM [inhibitor, partial curve, poor fit]
O=c1[nH][nH]c(=S)n1-c1ccccc1C(F)(F)F | – | inconclusive: 10.7 µM [inhibitor, partial curve]
COCCNC(=O)CCC(=O)N1Cc2cccc(OC)c2Oc2ncccc21 | inactive: 0.899% | –
Cc1ccc(-c2[nH]c3ccccc3c2SCCNC(=O)c2ccc(S(=O)(=O)N(C)C)cc2)cc1 | inactive: -4.08% | –
Cc1cc(OCC(=O)N(C)C2CCCCC2)cc(C)c1Cl | – | inconclusive: 37.9 µM [inhibitor, single point]
N#C/C(=N\Nc1ccc(F)cc1)C(=N)N1CCCCC1 | – | active: 3.01 µM
COc1ccc(C(=O)c2ccc(CC#N)s2)cc1 | – | active: 12 µM
Cc1ccc(C(=O)COc2ncnc3cc(Cl)ccc23)cc1 | – | inconclusive: 8.49 µM [inhibitor, partial curve, poor fit]
COc1ccc(N=Cc2c(O)[nH]c3ccccc23)cc1 | – | active: 2.69 µM
Cc1c(C(=O)N(Cc2nnc(-c3ccccc3Cl)o2)C2CC2)oc2ccccc12 | – | inconclusive: 30.1 µM [inhibitor, partial curve, poor fit]
Cc1ccc(SCC(=O)NC2CCCCCC2)cc1 | – | inconclusive: 23.9 µM [inhibitor, partial curve]
